Measured values from PubChem BioAssay AID602332 (National Center for Advancing Translational Sciences (NCATS), 2012).
Where “and” joins values, the source holds several entries; their conditions need not be identical. Equal values may be shown once. Screen size: about 420,000 compounds; about 75 (0.02%) were called active. The inconclusive results got no clear call from the source; some entries with a clear call stand among them for comparison. Calls follow the shape of the dose curve; as a rule, active = well fitted activation curve with a large enough effect; inconclusive = small, poorly fitted or top-dose-only effect; inactive = no such curve, though single readings can be large or run the other way. Where the call is inconclusive, the potency comes from a doubtful curve fit.

test: qHTS for Inducers of the Endoplasmic Reticulum Stress Response (ERSR) in Human Glioma: qHTS; settings: U87-MG GRP78 promoter luciferase reporter, 16 h; activation: hits give high values; also: nearly all actives have a fitted effect of over 35% in size; as to activation: % of control where 0% means no effect
Procedure, shortened: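 Stably transfected U87-MG glioma cells carrying a GRP78-based luciferase sensor; 16 h compound incubation. Luminescence end-point read 10 min after Bright-Glo addition at room temperature.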
Potency is read from the fitted curve at half-maximal effect; tags tell the direction and shape of the fitted curve.

Compound	Potency	activation
NNC(=O)c1ccc2nc(-c3ccc(Br)cc3)cn2c1	inconclusive: 10 µM [activator, full curve]	–
O=C(Nc1ccc(N2CCCCC2)cc1)c1ccccc1	–	inactive: -5.34%
CN(C)c1c2ccccc2nc2c(F)c(F)c(F)c(F)c12	inconclusive: 28.2 µM [activator, single point]	–
COc1ccc(C2C3C=CCC(c4ccccc4)C3C(=O)N2Cc2ccccc2)cc1Cl (stereo not drawn)	inconclusive: 28.2 µM [activator, single point]	–
C[C@@H]1C(c2ccccc2)=NN(c2ccc(Br)cc2)[C@H]1C(=O)N1CCOC1=O	–	inactive: -3.18% and inactive: -0.263%
COC(=O)COc1cccc(NC(=O)c2ccc(Cl)cc2)c1	inconclusive: 44.7 µM [activator, partial curve, poor fit]	–
O=C(CCl)Nc1nc(-c2ccco2)c(-c2ccco2)s1	inconclusive: 44.7 µM [activator, single point]	–
CCOC(=O)CON1C(=O)c2ccccc2C1=O	–	inactive: -1.06%
Cc1ccc(C(=O)NNC(=S)NC(=O)c2ccc(Cl)cc2)cc1	inconclusive: 28.2 µM [activator, single point]	–
Cc1sc2ncnc(NCC3(N4CCOCC4)CCCCC3)c2c1C	–	inactive: -2.12%
CCOC(=O)c1sc2nc(-c3ccco3)c3c(c2c1N)CC(C)(C)OC3	inconclusive: 28.2 µM [activator, single point]	–
Cc1ccc(/C=C/C(=O)c2cc(Br)ccc2OC(=O)c2ccco2)cc1	inconclusive: 14.1 µM [activator, single point]	–
Cc1ccccc1CN1C(=O)c2ccccc2S(=O)(=O)c2ccc(C(=O)OCC3CCCO3)cc21 (stereo not drawn)	–	inactive: -2.44%
COc1ccc(Nc2c3c(nc4ccc(NC(=O)c5ccc(F)cc5)cc24)CCCC3)cc1OC	inconclusive: 63.1 µM [activator, single point]	–
Cc1nonc1NC(=O)CSc1nc(C23CC4CC(CC(C4)C2)C3)nc2ccccc12	inconclusive: 50.1 µM [activator, single point]	–
CCC(C)NC(=O)C1=CCN(S(=O)(=O)c2ccc(C)cc2)CC1 (stereo not drawn)	–	inactive: -0.0574%
CCOc1cccc(-c2c(C(=O)N/N=C/c3ccc(C)s3)nnn2-c2nonc2N)c1	–	inactive: -4.81%
CCC(C)Sc1cccc(-c2nc3ccccn3c2NCc2ccccc2)c1 (stereo not drawn)	–	inactive: -2.17%
Cc1nc(C)n(CC(=O)NCC2Cc3cc(-c4cccc(OC(F)(F)F)c4)ccc3O2)n1 (stereo not drawn)	–	inactive: -0.281%
COc1cccc(Oc2ccc(C(F)(F)F)cc2NC(=O)CN2C(=O)NC3(CCCC3)C2=O)c1	inconclusive: 12.6 µM [activator, full curve, poor fit]	–
Cc1ccc(-c2[nH]c3cc(C(N)=O)ccc3c(=O)c2O)cc1	inconclusive: 22.4 µM [activator, single point]	–
CC(=NNC(=S)Nc1ccc(C)cc1)c1ccccn1	inconclusive: 28.2 µM [activator, partial curve, poor fit]	–

Compound	Potency	activation
COC(=O)c1ccc2nc(-c3ccco3)c(Cc3ccc(C)cc3)n2c1	inconclusive: 50.1 µM [activator, partial curve, poor fit]	–
COc1ccccc1OCc1nc(C#N)c(NCc2ccc(C)cc2)o1	–	inactive: -0.564%
CCC(=O)Nc1cccc(C(=O)/C=C/c2cccs2)c1	inconclusive: 11.2 µM [activator, partial curve, poor fit]	–
O=C(NCC1CCOCC1)c1ccc2nc(Cc3cccc(Cl)c3)oc2c1	–	inactive: 7.33%
CC[C@@]1(C(=O)OC)N[C@H](CN(C)C(=O)c2ccc(F)cc2)[C@@H]2C(=O)N(C)C(=O)[C@@H]21	–	inactive: -4.34%
O=C(O)c1ccc2c(c1)C(=O)N(c1ccc(/C=C/C(=O)c3ccccc3)cc1)C2=O	inconclusive: 31.6 µM [activator, partial curve, poor fit]	–
CCOc1ccc(/C=C2/SC(=S)N(n3c(C)ccc3C)C2=O)cc1	–	inactive: -1.54%
N=C1C(c2nc3ccccc3s2)=C(O)CN1CCCO	inconclusive: 44.7 µM [activator, partial curve, poor fit]	–
Cc1nnc2c3ccccc3nc(Nc3ccccc3C(=O)O)n12	–	inactive: -2.36%
Cc1ccc(CSCC(=O)Nc2ccccc2F)cc1	inconclusive: 2 µM [activator, partial curve, poor fit]	–
COc1cc(-c2cc(NC(C)=O)c3ncc(-c4ccc(F)cc4)n3c2)cc(OC)c1OC	inconclusive: 50.1 µM [activator, single point]	–
COc1ccc(C(C[N+](=O)[O-])c2c(-c3ccccc3)cc3ccccn23)c(OC)c1 (stereo not drawn)	inconclusive: 50.1 µM [activator, single point]	–
CCOC(=O)c1oc2cccc(OC(C)=O)c2c1C	inconclusive: 11.2 µM [activator, single point]	–
Oc1c(Br)cc(Br)c(/C=N/n2c(-c3ccccc3)n[nH]c2=S)c1Br	–	inactive: 5.52%
O=C1c2cccc3c([N+](=O)[O-])ccc(c23)C(=O)N1O	inconclusive: 20 µM [activator, single point]	–
O=C(COc1ccccc1Cl)NC(=S)Nc1cccc(NC(=O)c2ccccc2Cl)c1	inconclusive: 22.4 µM [activator, single point]	–
Cc1ccc(NS(=O)(=O)c2ccc(C(=O)N3CC(C)CC(C)C3)cc2)cc1 (stereo not drawn)	active: 39.8 µM	–
CC(=O)N1CCC2(CCCN(C(c3ccccc3)c3ccccc3)C2)CC1	inconclusive: 50.1 µM [activator, single point]	–
COCCN1CC(CNC(=O)c2cc(COc3ccc(C)c(C)c3)on2)CC1=O (stereo not drawn)	inconclusive: 35.5 µM [activator, partial curve, poor fit]	–
CSc1ccccc1C(=O)Nc1cc(C)cc(C)c1	inconclusive: 50.1 µM [activator, single point]	–
CCCC(=O)OCCNc1cc(SCc2ccco2)c2nonc2c1[N+](=O)[O-]	inconclusive: 28.2 µM [activator, single point]	–
